Assay results reported in patent publication US10858425B2, “Pan-ELR+ CXC chemokine antibodies” (Eli Lilly and Company, priority 2013, dated 2020).

Assay: Physical stability evaluation, % HMW aggregate by analytical SEC
Assay type: physicochemical
Settings: for % HMW (t = 1 week) / Δ % HMW (t = 1 week) / % HMW (t = 4 weeks) / Δ % HMW (t = 4 weeks): 50 mg/mL; for Δ % HMW (t = 1 week): 1 week minus initial; for Δ % HMW (t = 4 weeks): 4 weeks minus initial
Excerpt: Protein aggregation and self-association is an undesirable property in antibodies as it could potentially exacerbate unwanted effects, such as triggering an immune response. Thus, maintaining the antibody in a monomeric state is highly desirable. Percent high molecular weight (% HMW) aggregate is an indicator of protein aggregation and self-association. A higher % HMW aggregate indicates increased protein aggregation/self-association and increased physical instability. Physical stability of Antibody 1 and Antibody 2 are determined as follows.
Antibody is dialyzed overnight at 4° C. into 10 mM Citrate, pH 6+/−150 mM NaCl. The next morning, the samples are concentrated to 50 mg/mL, filtered through 0.2 micron filters, and then Tween-80 is added to a final concentration of 0.02%. Each sample is incubated at 25° C. for the specified times. Soluble aggregate formation is followed by analytical SEC using a TSK3000SWXL, 5 micron column with dimensions 30 cm×0.78 cm. […] Samples are applied as 1 μL injections and monitored at 280 nm to determine the increase % HMW aggregate (Table 3).
The 50 mg/mL formulations are incubated for 1 and 4 weeks at 25° C. to assess longer-term stability under stress conditions. The delta % HMW aggregate is determined by subtracting the % HMW aggregate at time zero (designated as ‘Initial’ in Table 3) from the % HMW at the 1 week or 4 week time point.

[1] = 10 mM Citrate pH7, 150 mM NaCl 25° C.
[2] = 10 mM Citrate pH7, 150 mM NaCl, 0.02% Tween-80 25° C.

B1: Antibody 2: antibody with heavy chain SEQ ID NO: 13 and light chain SEQ ID NO: 15, expressed in NSO cells (antibody)
heavy: QVQLVQSGAEVKKPGASVKVSCKASGYEFTSYWIHWVRQAPGQGLEWMGNISPNSGSANYNEKFKSRVTMTRDTSTSTVYMELSSLRSEDTAVYYCAREGPYSYYPSRQYYGSDLWGQGTLVTVSSASTKGPSVFPLAPCSRSTSESTAALGCLVKDYFPEPVTVSWNSGALTSGVHTFPAVLQSSGLYSLSSVVTVPSSSLGTKTYTCNVDHKPSNTKVDKRV[human IgG4 Fc with S228P (EU numbers) not spelt out]
light: EIVLTQSPATLSLSPGERATLSCRASQSISNNLHWYQQKPGQAPRLLIYYTSRSVSGIPARFSGSGSGTDFTLTISSLEPEDFAVYYCGQNNEWPEVFGGGTKVEIKRTVAAPSVFIFPPSDEQLKSGTASVVCLLNNFYPREAKVQWKVDNALQSGNSQESVTEQDSKDSTYSLSSTLTLSKADYEKHKVYACEVTHQGLSSPVTKSFNRGEC
- % HMW Initial (4° C.) (10 mM Citrate pH7, 150 mM NaCl, 0.02% Tween-80): 0.42%
- % HMW Initial (4° C.) (10 mM Citrate pH7, 150 mM NaCl): 0.37%
- % HMW (t = 1 week) [1]: 0.48%
- Δ % HMW (t = 1 week) [1]: 0.11%
- % HMW (t = 4 weeks) [1]: 0.59%
- Δ % HMW (t = 4 weeks) [1]: 0.22%
- % HMW (t = 1 week) [2]: 0.55%
- Δ % HMW (t = 1 week) [2]: 0.13%
- % HMW (t = 4 weeks) [2]: 0.74%
- Δ % HMW (t = 4 weeks) [2]: 0.32%
